# Source: the supplement of paper PMC4967469
# IC50 is the fitted dose that halves viability relative to control wells, and lower means more sensitive; a limit (>, <) means that the fit lies beyond the doses tested. AUC is the area under the same curve over the 256-fold range up to the top dose, as a fraction; it is 1 without any effect and falls as sensitivity rises. For some assays here: Where the top dose is marked as inferred, it comes from the curve model; the source does not state it.
# Tests used:
# Assay in all cases: Viability of human cancer cell lines after 72 h of drug (GDSC screen)
# BMX-IN-1 (QL-XII-61) = compound: C=CC(=O)Nc1cc(-n2c(=O)ccc3cnc4ccc(-c5ccc(NS(C)(=O)=O)cc5)cc4c32)ccc1C [BMX-IN-1 (QL-XII-61)]; conditions: top dose 10 µM; top dose inferred
# Description: (§1)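 Human cancer cell lines in 384-well plates, medium with 10% serum, drug for 72 h over a 256-fold dose range (nine 2-fold or five 4-fold steps up to the top dose). Adherent lines were fixed and stained with the nucleic acid dye Syto60, suspension lines read with resazurin; signal relative to control wells, capped at 0 and 100%. One two-parameter sigmoid per drug and line, fitted in a mixed model over all curves with the slope shared within a line.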
# Dimethyloxalylglycine = compound: COC(=O)CNC(=O)C(=O)OC [Dimethyloxalylglycine]; conditions: top dose 4000 µM; top dose inferred
# Description: as §1
# TG101348 = compound: Cc1cnc(Nc2ccc(OCCN3CCCC3)cc2)nc1Nc1cccc(S(=O)(=O)NC(C)(C)C)c1 [TG101348]; conditions: top dose 10.24 µM
# Description: as §1
# Doxorubicin = compound: COc1cccc2c1C(=O)c1c(O)c3c(c(O)c1C2=O)C[C@@](O)(C(=O)CO)C[C@@H]3O[C@H]1C[C@H](N)[C@H](O)[C@H](C)O1 [Doxorubicin]; conditions: top dose 1.024 µM
# Description: as §1
# CCT018159 = compound: CCc1cc(-c2n[nH]c(C)c2-c2ccc3c(c2)OCCO3)c(O)cc1O [CCT018159]; conditions: top dose 10 µM; top dose inferred
# Description: as §1
# UNC1215 = compound: O=C(c1ccc(C(=O)N2CCC(N3CCCC3)CC2)c(Nc2ccccc2)c1)N1CCC(N2CCCC2)CC1 [UNC1215]; conditions: top dose 1 µM; top dose inferred
# Description: as §1
# BIX02189 = compound: CN(C)Cc1cccc(N=C(c2ccccc2)c2c(O)[nH]c3cc(C(=O)N(C)C)ccc23)c1 [BIX02189]; conditions: top dose 20 µM; top dose inferred
# Description: as §1
# OSI-027 = compound: COc1cccc2cc(-c3nc([C@H]4CC[C@H](C(=O)O)CC4)n4ncnc(N)c34)[nH]c12 [OSI-027]; conditions: top dose 20 µM
# Description: as §1
# Vismodegib = compound: CS(=O)(=O)c1ccc(C(=O)Nc2ccc(Cl)c(-c3ccccn3)c2)c(Cl)c1 [Vismodegib]; conditions: top dose 10 µM; top dose inferred
# Description: as §1
# VX-11e = compound: Cc1cnc(Nc2ccc(F)cc2Cl)nc1-c1c[nH]c(C(=O)N[C@H](CO)c2cccc(Cl)c2)c1 [VX-11e]; conditions: top dose 5.12 µM; top dose inferred
# Description: as §1
# 17-AAG = compound: C=CCNC1=C2C[C@@H](C)C[C@H](OC)[C@H](O)[C@@H](C)/C=C(\C)[C@H](OC(N)=O)[C@@H](OC)/C=C\C=C(/C)C(=O)NC(=CC1=O)C2=O [17-AAG]; conditions: top dose 1 µM
# Description: as §1
Cell Line,AUC (BMX-IN-1 (QL-XII-61)),IC50 (BMX-IN-1 (QL-XII-61)) [µM],AUC (Dimethyloxalylglycine),IC50 (Dimethyloxalylglycine) [µM],AUC (TG101348),IC50 (TG101348) [µM],AUC (Doxorubicin),IC50 (Doxorubicin) [µM],AUC (CCT018159),IC50 (CCT018159) [µM],AUC (UNC1215),IC50 (UNC1215) [µM],AUC (BIX02189),IC50 (BIX02189) [µM],AUC (OSI-027),IC50 (OSI-027) [µM],AUC (Vismodegib),IC50 (Vismodegib) [µM],AUC (VX-11e),IC50 (VX-11e) [µM],AUC (17-AAG),IC50 (17-AAG) [µM]
"NCI-H1688 (small cell lung carcinoma, adherent)",0.985,> 10,0.662,743,0.883,> 10.2,0.788,0.499,0.948,> 10,0.983,> 1,0.819,13,0.875,> 20,0.986,> 10,0.974,> 5.12,0.941,> 1
"GI-ME-N (neuroblastoma, adherent)",0.756,4.58,0.724,1390,0.634,1.72,0.529,0.0789,0.832,9.99,0.968,> 1,0.737,7.79,0.345,0.395,0.976,> 10,0.862,> 5.12,0.837,> 1
"TOV-21G (ovary, adherent)",0.826,6.78,0.921,> 4000,0.867,> 10.2,0.797,0.532,0.921,> 10,0.983,> 1,0.984,> 20,0.974,> 20,0.939,> 10,0.983,> 5.12,0.206,0.00773
"SW684 (fibrosarcoma, adherent)",0.968,> 10,0.775,2370,0.977,> 10.2,0.976,> 1.02,0.897,> 10,0.98,> 1,0.983,> 20,0.926,> 20,0.954,> 10,0.983,> 5.12,0.519,0.0721
"H2461 (mesothelioma, adherent)",0.943,> 10,0.678,898,0.955,> 10.2,0.736,0.363,0.881,> 10,0.972,> 1,0.978,> 20,0.893,> 20,0.983,> 10,0.981,> 5.12,0.816,0.741
"ES7 (Ewing sarcoma, adherent)",0.872,9.96,0.593,453,0.577,1.05,0.384,0.0303,0.874,> 10,0.981,> 1,0.816,11.4,0.218,0.182,0.944,> 10,0.833,3.44,0.93,> 1
"MOG-G-CCM (glioma, adherent)",0.963,> 10,0.577,422,0.85,9.86,0.64,0.167,0.935,> 10,0.976,> 1,0.922,> 20,0.361,0.482,0.933,> 10,0.952,> 5.12,0.694,0.242
"TT (thyroid, adherent)",0.967,> 10,0.594,500,0.859,> 10.2,0.956,> 1.02,0.918,> 10,0.973,> 1,0.978,> 20,0.957,> 20,0.983,> 10,0.973,> 5.12,0.97,> 1
"CP50-MEL-B (melanoma, adherent)",0.942,> 10,0.684,813,0.988,> 10.2,0.925,> 1.02,0.963,> 10,0.982,> 1,0.967,> 20,0.826,11.9,0.979,> 10,0.852,3.91,0.433,0.041
"HCC-56 (large intestine, adherent)",0.943,> 10,0.944,> 4000,0.798,5.02,0.675,0.2,0.985,> 10,0.983,> 1,0.985,> 20,0.849,15.7,0.959,> 10,0.816,2.93,0.787,0.445
"C2BBe1 (large intestine, adherent)",0.976,> 10,0.753,1500,0.896,> 10.2,0.815,0.662,0.952,> 10,0.982,> 1,0.938,> 20,0.37,0.518,0.883,> 10,0.908,> 5.12,0.703,0.255
"ETK-1 (biliary tract, adherent)",0.904,> 10,0.615,543,0.902,> 10.2,0.554,0.0915,0.911,> 10,0.981,> 1,0.941,> 20,0.722,5.85,0.969,> 10,0.935,> 5.12,0.583,0.109
"AMO-1 (haematopoietic neoplasm, suspension)",0.949,> 10,0.649,605,0.833,5.35,0.699,0.21,0.942,> 10,0.98,> 1,0.866,13.8,0.363,0.554,0.991,> 10,0.928,> 5.12,0.701,0.209
"NCI-H2291 (lung adenocarcinoma, adherent)",0.956,> 10,0.826,3760,0.984,> 10.2,0.971,> 1.02,0.926,> 10,0.982,> 1,0.977,> 20,0.982,> 20,0.983,> 10,0.984,> 5.12,0.734,0.382
"NCI-H1648 (lung adenocarcinoma, adherent)",0.949,> 10,0.791,1920,0.922,> 10.2,0.574,0.103,0.984,> 10,0.981,> 1,0.971,> 20,0.334,0.418,0.973,> 10,0.898,> 5.12,0.657,0.176
"NB(TU)1-10 (neuroblastoma, adherent)",0.993,> 10,0.716,923,0.987,> 10.2,0.672,0.179,0.993,> 10,0.993,> 1,0.877,15.5,0.967,> 20,0.963,> 10,0.535,0.394,0.989,> 1
"PC-14 (lung adenocarcinoma, adherent)",0.975,> 10,0.848,2510,0.766,3.38,0.711,0.233,0.81,4.57,0.989,> 1,0.908,> 20,0.637,2.86,0.978,> 10,0.984,> 5.12,0.441,0.044
"BE-13 (lymphoblastic leukaemia, suspension)",0.873,8.59,0.442,176,0.721,2.58,0.42,0.0392,0.931,> 10,0.972,> 1,0.794,8.55,0.383,0.609,0.967,> 10,0.852,3.57,0.984,> 1
"NB10 (neuroblastoma, adherent)",0.983,> 10,0.593,446,0.852,7.62,0.657,0.172,0.933,> 10,0.985,> 1,0.977,> 20,0.767,7.24,0.988,> 10,0.941,> 5.12,0.877,0.96
"COR-L23 (large cell lung carcinoma, adherent)",0.972,> 10,0.793,1770,0.817,5.54,0.403,0.035,0.845,6.95,0.984,> 1,0.928,> 20,0.38,0.59,0.968,> 10,0.896,> 5.12,0.821,0.561
"GR-ST (lymphoblastic leukaemia, suspension)",0.715,2.92,0.482,222,0.568,1.02,0.719,0.309,0.831,8.27,0.978,> 1,0.863,> 20,0.219,0.154,0.971,> 10,0.938,> 5.12,0.926,> 1
"SH-4 (melanoma, adherent)",0.97,> 10,0.773,2520,0.909,> 10.2,0.553,0.0965,0.936,> 10,0.959,> 1,0.928,> 20,0.636,3.65,0.974,> 10,0.615,0.787,0.593,0.129
"EFM-192A (breast, adherent)",0.885,> 10,0.337,83.2,0.985,> 10.2,0.407,0.0346,0.945,> 10,0.984,> 1,0.967,> 20,0.915,> 20,0.979,> 10,0.963,> 5.12,0.526,0.0744
